{
  "source": "PubChem BioAssay AID485297",
  "about": "(National Center for Advancing Translational Sciences (NCATS), 2010)",
  "note": "Screen size: about 320,000 compounds; about 9,100 (2.8%) were called active. Inconclusive results, whose numbers are uncertain, are shown with a selection of clear calls. Calls follow the shape of the dose curve; as a rule, active = well fitted activation curve with a large enough effect; inconclusive = small, poorly fitted or top-dose-only effect; inactive = no such curve, though single readings can be large or run the other way. No potency is given beside an inconclusive call; the fits are too rough. Potency is read from the fitted curve at half-maximal effect; tags tell the direction and shape of the fitted curve.",
  "data": [
    {"assay": "qHTS Assay for Rab9 Promoter Activators; also: nearly all actives have a fitted effect of over 60% in size", "settings": "Huh7 Rab9 promoter-luciferase reporter, luminescence, 24 h; series mostly up to 9.22 µM", "outline": "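Stable Rab9-luc Huh7, 1500 cells/well, 2 h settle; cmpd in DMSO, 24 h, 37 °C/5% CO2; luciferase reagent 10 min RT; luminescence.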", "values": [
      {"molecule": "Cc1ccc(/C=C/C(=O)Nc2ncc(C)s2)o1", "Potency": "active: 2.82 µM"},
      {"molecule": "S=C(NCCC1=CCCCC1)Nc1ccccc1", "Potency": "inconclusive [activator, partial curve]"},
      {"molecule": "CCOC(=O)c1sc(NC(=O)C2CC(=O)N(c3ccc(C)cc3)C2)nc1C", "note": "(configuration not stated)", "Potency": "inconclusive [activator, single point]"},
      {"molecule": "COC(=O)CSc1ccc2c(N)c(C(=O)OC)sc2c1", "Potency": "inactive"},
      {"molecule": "C#CCSc1nnc(-c2ccc(C)cc2)o1", "Potency": "active: 2.24 µM"},
      {"molecule": "CCN(CC)CCN1C(=O)C(=O)/C(=C(/O)c2cnn(-c3ccccc3)c2C)C1c1cccs1", "note": "(configuration not stated)", "Potency": "active: 2.51 µM"},
      {"molecule": "O=C(NN/C(=N/S(=O)(=O)c1ccc(Cl)cc1)c1ccccc1)c1cccc(Cl)c1", "Potency": "inconclusive [activator, partial curve]"},
      {"molecule": "O=C(Nc1nnc(-c2ccco2)s1)C1CCCCC1", "Potency": "active: 3.16 µM"},
      {"molecule": "Cc1ccc(C)c(NC(=O)CSc2nccn2Cc2ccco2)c1", "Potency": "inconclusive [activator, partial curve]"},
      {"molecule": "CCC(=O)Nc1ccc2c(c1)Cc1cc(NC(=O)CC)ccc1-2", "Potency": "inconclusive [activator, partial curve]"},
      {"molecule": "COc1ccc(OCCCn2cccc2/C=C2/C(=N)N3OC(C)=CC3=NC2=O)cc1", "Potency": "inconclusive [activator, single point]"},
      {"molecule": "NC(=O)C1CC(=O)N(c2ccc(OCc3ccc([N+](=O)[O-])cc3)cc2)C1", "note": "(configuration not stated)", "Potency": "inconclusive [activator, partial curve]"},
      {"molecule": "O=[N+]([O-])c1ccc(-c2cc(-c3ccc(Cl)cc3)n[nH]2)cc1", "Potency": "inconclusive [activator, single point]"},
      {"molecule": "Cc1ccccc1C1CCCN(Cc2nc(C3CC3)no2)C1", "note": "(configuration not stated)", "Potency": "inactive"},
      {"molecule": "COc1ccc(-c2csc(/C(C#N)=C\\c3ccc(O)c([N+](=O)[O-])c3)n2)cc1OC", "Potency": "inactive"},
      {"molecule": "O=C(O)c1ccc(Nc2nc(-c3cccnc3)cs2)cc1", "Potency": "inconclusive [activator, partial curve]"},
      {"molecule": "COc1cc2ncnc(NCc3ccco3)c2cc1OC", "Potency": "inactive"},
      {"molecule": "Cc1cc(C)c(NC(=O)CC(=O)c2ccccc2)c(Cl)c1", "Potency": "inconclusive [activator, single point]"},
      {"molecule": "CN(C)C(CNC(=O)C1CCN(S(=O)(=O)c2ccccc2C(F)(F)F)CC1)Cc1ccccc1", "note": "(configuration not stated)", "Potency": "inconclusive [activator, single point]"},
      {"molecule": "O=Nc1c(-c2ccccc2)cc2ccccn12", "Potency": "inconclusive [activator, partial curve]"},
      {"molecule": "COc1ccc(S(N)(=O)=O)cc1C(=O)NNC(=O)CN(C)S(=O)(=O)c1ccc(Cl)cc1", "Potency": "inconclusive [activator, single point]"},
      {"molecule": "CCC(=O)Oc1ccc(C(=O)Nc2ccc([N+](=O)[O-])cc2)cc1", "Potency": "inconclusive [activator, single point]"},
      {"molecule": "CCn1cc(SCC(=O)N2CCOCC2)c2ccccc21", "Potency": "inconclusive [activator, single point]"},
      {"molecule": "O=C(c1cc(Br)ccc1Cl)N1CCN(c2ccccn2)CC1", "Potency": "inactive"},
      {"molecule": "CCN1CCN(C(=O)CSc2ccc(C)cc2)CC1", "Potency": "inconclusive [activator, partial curve]"},
      {"molecule": "Brc1ccc(-c2csc(N/N=C/c3ccco3)n2)cc1", "Potency": "inconclusive [activator, single point]"},
      {"molecule": "Nc1cc(=O)[nH]c(SCC(=O)Nc2ccc3c(c2)CCC3)n1", "Potency": "inconclusive [activator, single point]"},
      {"molecule": "Cc1nc2c(-c3ccc(Cl)cc3)cnn2c(N)c1-c1ccc(F)cc1", "Potency": "inconclusive [activator, partial curve]"},
      {"molecule": "COc1cccc(NC(=O)CN(C)C(=O)c2ccccc2Sc2ccccc2C#N)c1", "Potency": "inactive"},
      {"molecule": "N#CCc1nn2c(-c3ccccc3)ccnc2c1C#N", "Potency": "inactive"},
      {"molecule": "CCN(CC)CCN1C(=O)c2ccccc2NC1c1cc(OC)c(OC)c(OC)c1", "note": "(configuration not stated)", "Potency": "inconclusive [activator, single point]"},
      {"molecule": "CC1(C)CC(=O)c2sc(N3CCCCC3)nc2C1", "Potency": "inconclusive [activator, partial curve]"},
      {"molecule": "O=C(Nc1ncccc1Cl)c1cc2ccccc2o1", "Potency": "active: 1.58 µM"},
      {"molecule": "O=C(Nc1nccs1)c1ccc2c(=O)n3c(nc2c1)CCCCC3", "Potency": "active: 3.16 µM"},
      {"molecule": "Cc1cc(C)nc(NC(=O)/C=C/c2ccccc2Cl)c1", "Potency": "inconclusive [activator, single point]"},
      {"molecule": "CCCc1noc(-c2ccc(-c3ccccc3)cc2)n1", "Potency": "active: 1.58 µM"},
      {"molecule": "CN(C)/C=N/c1ncc(C(=O)c2ccccc2)s1", "Potency": "active: 3.16 µM"},
      {"molecule": "Cc1ccc(Nc2nc(-c3ccccc3)cs2)nc1", "Potency": "active: 0.562 µM"},
      {"molecule": "Cc1ccc2c(Cl)c(C(=O)NCC(c3ccco3)N3CCCC3)sc2c1", "note": "(configuration not stated)", "Potency": "inactive"},
      {"molecule": "N/C(=N\\OC(=O)c1ccc([N+](=O)[O-])cc1)c1ccccn1", "Potency": "active: 0.316 µM"},
      {"molecule": "Cc1c(C(=O)Nc2ccc3c(c2)OCCO3)oc2ccc(Br)cc12", "Potency": "inconclusive [activator, single point]"},
      {"molecule": "CCOc1ccc(C(=O)Nn2cnnc2)cc1", "Potency": "inactive"},
      {"molecule": "COc1ccc(-c2nc(CC(=O)O)cs2)cc1OC", "Potency": "inactive"},
      {"molecule": "Cc1ccsc1/C=C/c1ccc2cccc(O)c2n1", "Potency": "active: 3.55 µM"},
      {"molecule": "COc1cccc(-c2nc(-c3ccc4c(c3)NC(=O)CO4)cs2)c1", "Potency": "inconclusive [activator, partial curve]"},
      {"molecule": "CCC(=O)/C(=C(/O)c1ccccc1)c1nc2ccccc2[nH]1", "Potency": "inconclusive [activator, partial curve]"},
      {"molecule": "O=C(NC(=O)N1CCN(C(c2ccccc2)c2ccccc2)CC1)c1ccccc1", "Potency": "inactive"},
      {"molecule": "CCc1nn(CC(=O)N2CCN(Cc3ccc4c(c3)OCO4)CC2)c(=O)c2cc3occc3n12", "Potency": "inactive"},
      {"molecule": "CCOc1cc(CN2CCC(n3nccc3NC(=O)C3CC3)CC2)ccc1O", "Potency": "inactive"},
      {"molecule": "COc1ccc(C2CC(c3ccc4ccccc4c3)=NN2C(=O)CN2CCC(C(N)=O)CC2)cc1", "note": "(configuration not stated)", "Potency": "inconclusive [activator, full curve, poor fit]"},
      {"molecule": "CCc1ccc(Nc2cnn(-c3nc4ccccc4s3)c(=O)c2Cl)cc1", "Potency": "inconclusive [activator, single point]"},
      {"molecule": "Cc1ccc(NC(=O)CCn2nnc3ccccc32)cc1", "Potency": "inconclusive [activator, single point]"},
      {"molecule": "Cc1ccc(NC(=O)CN2CCCCCC2)cc1[N+](=O)[O-]", "Potency": "inconclusive [activator, single point]"},
      {"molecule": "Cc1cc2ccccc2c(=O)n1CC(=O)N(C)c1ccc(F)cc1", "Potency": "inactive"},
      {"molecule": "CC1CCCN(C(=O)COC(=O)Cc2c(F)cccc2Cl)C1", "note": "(configuration not stated)", "Potency": "inconclusive [activator, single point]"},
      {"molecule": "CCOc1ccc(-c2ccc(SCc3ccccn3)nn2)cc1", "Potency": "inconclusive [activator, partial curve]"},
      {"molecule": "CCCN(C(=O)c1ccco1)c1nnc(-c2ccccc2C)s1", "Potency": "inconclusive [activator, single point]"},
      {"molecule": "COc1ccc(C(=O)Nc2ccc(C3(C#N)CCCC3)cc2)cc1OC", "Potency": "inconclusive [activator, single point]"},
      {"molecule": "O=Cc1cc(-c2ccccc2)[nH]c1-c1ccccc1", "Potency": "inconclusive [activator, partial curve]"},
      {"molecule": "CCOc1ccc(/C=C/C(=O)Nc2cccc(C(C)=O)c2)cc1", "Potency": "inconclusive [activator, partial curve]"},
      {"molecule": "CS(=O)(=O)c1ccc(Cl)c(NC(=O)CN2CCCC2c2ccc3c(c2)OCCCO3)c1", "note": "(configuration not stated)", "Potency": "inactive"},
      {"molecule": "Cc1ccc(C)c(NC(=O)c2ccc3ccccc3n2)c1", "Potency": "active: 2 µM"},
      {"molecule": "Cc1c(C(=O)N(C)C)sc2nc(-c3ccccn3)[nH]c(=O)c12", "Potency": "inconclusive [activator, single point]"},
      {"molecule": "CCOc1ccc(NC(=O)c2cc3ccccc3cc2OC)cc1", "Potency": "inconclusive [activator, partial curve]"},
      {"molecule": "CC(/C=N/NC(=O)c1ccncc1)=C\\c1ccc(C(C)C)cc1", "Potency": "active: 2.82 µM"},
      {"molecule": "O=C(Cc1nc2ccccc2[nH]1)c1ccc([N+](=O)[O-])cc1", "Potency": "inconclusive [activator, single point]"},
      {"molecule": "O=C1/C(=C/c2cccnc2)SC(=S)N1CC1CCCO1", "note": "(configuration not stated)", "Potency": "inactive"},
      {"molecule": "CCCCCCC(=O)c1c(C)[nH]c(C(=O)OCC)c1C", "Potency": "inactive"},
      {"molecule": "O=C(Nc1cccc(O)c1)c1noc2c1CCc1ccccc1-2", "Potency": "inconclusive [activator, single point]"},
      {"molecule": "Cc1cccc(N2CCN(C(=O)C3CCC(=O)N(Cc4ccccc4F)C3)CC2)c1C", "note": "(configuration not stated)", "Potency": "inactive"},
      {"molecule": "NC(=O)[C@@H]1CCCN1Cc1nc(-c2ccc(C(F)(F)F)cc2)no1", "Potency": "inactive"},
      {"molecule": "O=C(COC(=O)c1cccs1)c1ccc2c(c1)OCCO2", "Potency": "active: 0.316 µM"},
      {"molecule": "O=C(c1ccco1)N1CCn2c1nc1ccccc12", "Potency": "inconclusive [activator, single point]"},
      {"molecule": "Cc1ccc2nc(NC(=O)c3cccc(-c4cc5ccccc5oc4=O)c3)sc2c1", "Potency": "inconclusive [activator, partial curve]"},
      {"molecule": "CN(C)/C=C1\\SC(=S)N(c2ccc(Br)cc2)C1=O", "Potency": "inconclusive [activator, single point]"},
      {"molecule": "COc1ccccc1C(=O)Nc1nc(-c2cccs2)c(NC(C)=O)s1", "Potency": "inconclusive [activator, single point]"},
      {"molecule": "CCOC(=O)c1c(C)[nH]c(C(=O)CSc2ccc(Cl)cc2)c1C", "Potency": "inconclusive [activator, partial curve]"}
    ]}
  ]
}
